# Measurements: publication PMC4336329 (PLoS ONE, 2015)
# In all, about 310,000 compounds went through this assay and about 14,000 (4.5%) showed an effect of 50% or more. The effect is printed as a negative number. This is one part of the list.
# Target: human ether-à-go-go-related gene (hERG) potassium channel (human, UniProt Q12809)
# Assay: primary screen, population patch clamp on CHO cells stably expressing hERG
# 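Note: peak tail current of the secondary pulse compared with the same well before compound.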
# human ether-à-go-go-related gene (hERG) potassium channel, sequence (Q12809 whole entry, looked up): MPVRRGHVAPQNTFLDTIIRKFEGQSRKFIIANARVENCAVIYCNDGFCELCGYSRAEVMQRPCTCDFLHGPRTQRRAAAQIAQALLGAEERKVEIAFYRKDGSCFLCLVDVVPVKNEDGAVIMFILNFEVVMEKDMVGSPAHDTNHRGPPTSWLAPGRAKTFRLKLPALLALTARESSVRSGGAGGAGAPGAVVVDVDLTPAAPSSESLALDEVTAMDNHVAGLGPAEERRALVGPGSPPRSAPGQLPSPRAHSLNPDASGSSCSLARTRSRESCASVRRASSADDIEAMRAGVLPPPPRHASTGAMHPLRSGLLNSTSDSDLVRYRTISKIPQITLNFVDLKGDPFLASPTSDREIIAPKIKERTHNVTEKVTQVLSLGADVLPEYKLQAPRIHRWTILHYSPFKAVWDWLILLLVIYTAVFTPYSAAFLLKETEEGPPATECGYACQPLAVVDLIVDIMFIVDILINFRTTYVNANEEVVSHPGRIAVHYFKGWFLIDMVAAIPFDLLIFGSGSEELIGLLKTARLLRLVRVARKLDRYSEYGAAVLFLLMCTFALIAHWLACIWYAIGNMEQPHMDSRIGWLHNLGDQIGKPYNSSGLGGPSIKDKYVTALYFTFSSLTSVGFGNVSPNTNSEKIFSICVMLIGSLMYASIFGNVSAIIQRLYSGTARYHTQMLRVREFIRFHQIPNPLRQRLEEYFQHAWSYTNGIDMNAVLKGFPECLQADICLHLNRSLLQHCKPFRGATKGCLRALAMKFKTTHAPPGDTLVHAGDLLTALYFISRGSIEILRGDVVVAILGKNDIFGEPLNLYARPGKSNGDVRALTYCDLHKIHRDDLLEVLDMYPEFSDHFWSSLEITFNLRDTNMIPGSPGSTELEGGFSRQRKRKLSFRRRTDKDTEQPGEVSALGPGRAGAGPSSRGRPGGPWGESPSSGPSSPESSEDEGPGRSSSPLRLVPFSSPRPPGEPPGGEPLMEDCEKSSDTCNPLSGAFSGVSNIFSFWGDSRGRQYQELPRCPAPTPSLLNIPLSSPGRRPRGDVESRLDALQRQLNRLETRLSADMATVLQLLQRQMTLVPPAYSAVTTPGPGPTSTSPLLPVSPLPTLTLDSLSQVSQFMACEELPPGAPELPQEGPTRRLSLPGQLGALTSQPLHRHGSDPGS
row,SMILES,"hERG current change (%, negative = inhibition) at 10uM"
1,COc1cccc(NC(=S)/C(=C(\[O-])c2ccc(C)c([N+](=O)[O-])c2)[n+]2ccccc2)c1,-12.9%
2,O=S(=O)(NCCC(c1ccc(F)cc1)c1ccco1)c1ccccc1 (stereo not drawn),-7.77%
3,Cc1ccc(S(=O)(=O)N(CC(O)CN2C(=O)NC(C)(C)C2=O)c2cccc([N+](=O)[O-])c2)cc1 (stereo not drawn),1.04%
4,Cn1c(SCC(=O)Nc2ccc(NC(=O)c3cccc(F)c3)cc2)nnc1-c1ccncc1,9.76%
5,c1cc2c3c(cccc3c1)NC1(CCCCCC1)N2,-0.708%
6,C/C(=N/NC(=O)CSc1nc2ccccc2n1C)c1ccco1,-1.16%
7,O=C(CSc1nccc(=O)[nH]1)Nc1ccc(F)c([N+](=O)[O-])c1,2.7%
8,CCCNC(=O)COc1coc(CN2CCN(Cc3ccccc3)CC2)cc1=O,9.76%
9,COc1cccc(OC)c1C(=O)NC(=S)Nc1cc(-c2nc3ccccc3[nH]2)ccc1Cl,1.06%
10,CN1CCN(c2ncnc3sc(-c4ccccc4)cc23)CC1,-49.4%
11,CCOCCCNC(=O)c1cc2c(s1)-c1ccccc1SC2,-5.28%
12,CCNC(=O)NC(=O)COC(=O)c1cccc(S(=O)(=O)N2CC3(C)CC2CC(C)(C)C3)c1 (stereo not drawn),-7.09%
13,O=C(NCCS(=O)(=O)NC1CCCC1)c1ccccc1,-0.0158%
14,CCn1ccnc1CC1COc2ccccc2O1.Cl (stereo not drawn),-8.07%
15,COC(=O)NC(Nc1sc2c(c1C(N)=O)CCCC2)(C(=O)OC)C(F)(F)F (stereo not drawn),19.7%
16,COC(=O)CCc1n[nH]c(=O)[nH]c1=O,4.98%
17,O=C(Nc1ncccc1O)c1ccc(S(=O)(=O)N2CCCCCC2)cc1,5.29%
18,COC(=O)[C@@H](N)Cc1ccc(O)cc1,18.3%
19,COc1ccc(NC2CCCN(Cc3cccc4cnccc34)C2)cc1 (stereo not drawn),-18.5%

row,SMILES,"hERG current change (%, negative = inhibition) at 10uM"
1,COc1ccccc1NC(=O)CCn1cccc1,8.38%
2,CC(C)(C)C1CCc2c(C(=O)NNC(=O)CCC(=O)O)csc2C1 (stereo not drawn),3.34%
3,COC(=O)c1ccc(Cl)c(S(=O)(=O)N2CCCC2)c1,16.8%
4,Cc1cc(NC(=O)c2ccc3c(c2)C(=O)N(C2CCCCC2)C3=O)no1,8.78%
5,C[C@]1(C(=O)O)Cc2oncc2C[C@@H]1C(=O)O,6.58%
6,CCOC(=O)c1c(C)nc2ccccn12,-11.2%
7,CC(=O)c1ccccc1OCCn1nc(C(=O)O)c2ccccc2c1=O,-12.6%
8,COc1ccc(CN(C)CC(=O)NC(=O)NCc2ccccc2)c(OC)c1,-19%
9,O=C(NCC1CCCO1)c1cccc(NC(=O)c2cccs2)c1 (stereo not drawn),6.61%
10,Cc1cccc2cc(CN(CC3CCCO3)C(=O)c3cccs3)c(=O)[nH]c12 (stereo not drawn),7.38%
11,C=CCOc1ccc(CN(C)C(=O)CN2C(=O)c3ccccc3C2=O)cc1,-2.58%
12,C[N+]1(C)C2CC(OC(=O)[C@H](CO)c3ccccc3)CC1C1OC12.O=[N+]([O-])[O-] (stereo partly drawn),8.04%
13,COc1ccc(CCN2C(=O)NC(NS(=O)(=O)c3ccccc3)(C(F)(F)F)C2=O)cc1OC (stereo not drawn),-15.5%
14,Br.COC(=O)c1ccc(OCCN2C3=NCCN3c3ccccc32)cc1,-68.7%
15,Cc1cccc(NC(=O)c2cnn(C)c2)c1C,4.72%
16,O=C(COC(=O)c1ccccc1O)NCCC1=CCCCC1,22.1%
17,CN1CCN(c2nc(-c3ccccc3)ncc2S(C)(=O)=O)CC1,-48.4%
18,COCCSc1ccccc1C(=O)NCC1CCCO1 (stereo not drawn),-7.6%
19,CCOC(=O)c1c(S(=O)(=O)Nc2ccc(CN3CCC(C)CC3)cc2)c(C)n(C)c1C,-8.7%

row,SMILES,"hERG current change (%, negative = inhibition) at 10uM"
1,Cc1sc2nc(COC(=O)c3ccc(O)cc3)[nH]c(=O)c2c1C,8.85%
2,O=C(Nc1cccc(F)c1)C1CCN(C(=O)c2ccc(Br)cc2)CC1,-65.1%
3,CC(C)(C)c1ccc(C(=O)CC(Sc2ccc(Cl)cc2)C(=O)O)cc1 (stereo not drawn),-9.54%
4,O=C(CCCN1C(=O)/C(=C/c2ccccc2Cl)SC1=S)NNC(=O)c1ccc(Cl)cc1Cl,10.2%
5,COC(=O)c1cnc(N2CCOCC2)nc1C(F)(F)F,-1.97%
6,Cc1ccccc1C(=O)NNC(=O)CCc1ccccc1,23.1%
7,CC(=O)c1c(C)[nH]c(C(=O)CN2CCN(S(=O)(=O)c3ccccc3[N+](=O)[O-])CC2)c1C,-6.62%
8,Cc1cccc(NC(=O)CSc2nccn2Cc2ccco2)c1,0.772%
9,O=C(Cn1c(=S)[nH]c2ccccc2c1=O)N1CCC2(CC1)OCCO2,7.19%
10,CCOC(=O)c1sc(NC(=O)C(CC)OC(=O)C(CC(C)C)NC(=O)c2ccccc2)nc1C (stereo not drawn),5.98%
11,COc1ccc(CN(CC(=O)NCc2ccc3c(c2)OCO3)C(=O)c2csnn2)cc1,-39.8%
12,COc1ccc(CN2CCN(C(C)C(=O)NC(C)c3ccc(F)cc3)CC2)cc1F (stereo not drawn),-62%
13,Cc1nn(C(C)C(=O)NCc2ccccc2Cl)c(=O)c2c1sc1ccccc12 (stereo not drawn),-5.99%
14,Cc1ccc2oc(C(=O)N3CCCCCC3)c(C)c2c1,-0.864%
15,COc1ccccc1N1CCN(S(=O)(=O)c2ccc(F)cc2)CC1,0.437%
16,O=C(O)CCc1ccc(-c2ccccc2)n1CC1CCCO1 (stereo not drawn),5.67%
17,O=C(CNC1CCCC1)Nc1cc(Cl)ccc1[N+](=O)[O-].O=C(O)C(=O)O,-9.26%
18,COC(=O)c1cccc(C(=O)N2CCC(CO)(CCc3ccccc3)CC2)c1,-13.6%
19,Cc1ccc(OCC(=O)Nc2ccc(Cl)cc2C(=O)c2ccccc2)cc1,8.53%
